Values marked as one replicate rest on one cluster of the flow cell; about a third of the high ones do not repeat.
What follows are sequences tested on ATP (assay: switch fluorescence ratio, 500 uM ATP over buffer (Cy3 cluster intensity, sum of 5 cycles each) (fold (ratio)); higher = stronger signal-on switching upon ATP binding; sequences stand for … in TCGTCGGCAGCGTCAGATGTGTATAAGAGACAGTTTTTTTTTTTTTTTTTTTTTTTTT…TC). Conditions: aptamer strand: ATP DNA aptamer (quencher-CACCTGGGGGAGTATTGCGGAGGAAGG + anchor), 100 nM annealed; ATP concentration: 500 uM; one replicate.
In short: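 Clusters with intensities outside 100-1000 RFU were excluded. The remaining Cy3-labelled switching-strand clusters on a modified Illumina MiSeq flow-cell had been annealed to 100 nM quencher-labelled ATP aptamer and imaged in selection buffer, then after 15 min with 500 uM ATP at 22 °C, for five cycles separated by NaOH stripping and re-annealing. The fluorescence ratio, averaged per switch-domain sequence, is each cluster's summed target-cycle Cy3 intensity over its summed buffer-cycle Cy3 intensity.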
For TCCACTTCCG, the switch fluorescence ratio was 1.09.
TCCACTTTGT showed a switch fluorescence ratio of 0.96.
Work on TCCAGAATTC yielded a switch fluorescence ratio of 0.981.
For TCCAGATCTG, the switch fluorescence ratio was 1.01.
In the case of TCCAGATTAT, the switch fluorescence ratio is reported as 0.995.
In the case of TCCAGCAGTA, the switch fluorescence ratio is reported as 1.25.
Work on TCCAGCATG yielded a switch fluorescence ratio of 1.04.
With TCCAGCCTA the switch fluorescence ratio was 1.05.
TCCAGCCTGG gave a switch fluorescence ratio of 0.991.
With TCCAGGAACT the switch fluorescence ratio was 1.03.
Sequence TCCAGGCAA has a switch fluorescence ratio of 4.12.
Sequence TCCAGGGACG has a switch fluorescence ratio of 1.06.
Sequence TCCAGTGCAT has a switch fluorescence ratio of 1.02.
Work on TCCATCAGAA yielded a switch fluorescence ratio of 1.01.
In the case of TCCATCCA, the switch fluorescence ratio is reported as 0.995.
Sequence TCCATCGAGT has a switch fluorescence ratio of 1.01.
TCCATGCGAA showed a switch fluorescence ratio of 1.06.
In the case of TCCATTAGGG, the switch fluorescence ratio is reported as 1.02.
TCCATTCCTT showed a switch fluorescence ratio of 1.03.
TCCCAAAAAC gave a switch fluorescence ratio of 1.14.
In the case of TCCCAATCTG, the switch fluorescence ratio is reported as 1.08.
TCCCACTTGC showed a switch fluorescence ratio of 1.01.
With TCCCAGAGGA the switch fluorescence ratio was 1.22.
TCCCCAGCTT showed a switch fluorescence ratio of 1.49.
TCCCCATGAG showed a switch fluorescence ratio of 1.19.
TCCCCCCCCT gave a switch fluorescence ratio of 1.45.
Work on TCCCCCTTT yielded a switch fluorescence ratio of 1.08.
TCCCCGACCG was tested, and the switch fluorescence ratio was 1.25.
Sequence TCCCCGACTG has a switch fluorescence ratio of 1.1.
For TCCCCGTGCG, the switch fluorescence ratio was 1.12.
With TCCCCTTCCG the switch fluorescence ratio was 2.06.
Work on TCCCGAGTTG yielded a switch fluorescence ratio of 1.03.
TCCCGCCAAG gave a switch fluorescence ratio of 1.55.
TCCCGGAGCG gave a switch fluorescence ratio of 1.91.
In the case of TCCCGGCGGT, the switch fluorescence ratio is reported as 1.22.
Work on TCCCGGGGAT yielded a switch fluorescence ratio of 1.06.
In the case of TCCCGTGTTG, the switch fluorescence ratio is reported as 1.
In the case of TCCCTCGGAT, the switch fluorescence ratio is reported as 1.
For TCCCTCGTA, the switch fluorescence ratio was 1.02.
TCCCTGAA gave a switch fluorescence ratio of 1.04.
In the case of TCCCTGTTC, the switch fluorescence ratio is reported as 1.
For TCCCTTCATT, the switch fluorescence ratio was 1.08.
In the case of TCCCTTTCGG, the switch fluorescence ratio is reported as 0.979.
TCCGAGAGGT was tested, and the switch fluorescence ratio was 1.02.
In the case of TCCGAGCCCG, the switch fluorescence ratio is reported as 1.09.
TCCGCACTGT gave a switch fluorescence ratio of 4.58.
TCCGCCAGCG showed a switch fluorescence ratio of 1.88.
For TCCGCCCTA, the switch fluorescence ratio was 5.21.
TCCGCGGACA showed a switch fluorescence ratio of 1.06.
TCCGCTGAGA showed a switch fluorescence ratio of 1.27.
TCCGGAACCG was tested, and the switch fluorescence ratio was 1.05.
With TCCGGACATT the switch fluorescence ratio was 1.05.
For TCCGGCGAGA, the switch fluorescence ratio was 1.43.
TCCGGCGGGG gave a switch fluorescence ratio of 0.915.
Sequence TCCGGGAAGG has a switch fluorescence ratio of 1.01.
Sequence TCCGGGCGGC has a switch fluorescence ratio of 1.13.
TCCGGGGAAT gave a switch fluorescence ratio of 1.14.
For TCCGGGGGT, the switch fluorescence ratio was 1.09.
TCCGGTATCC was tested, and the switch fluorescence ratio was 1.31.
In the case of TCCGGTCTGT, the switch fluorescence ratio is reported as 1.04.
Work on TCCGTAACCG yielded a switch fluorescence ratio of 1.04.
Sequence TCCGTAGGG has a switch fluorescence ratio of 1.01.
For TCCGTAGTTC, the switch fluorescence ratio was 4.4.
Work on TCCGTGGCTA yielded a switch fluorescence ratio of 2.61.
TCCGTGTATC showed a switch fluorescence ratio of 1.28.
TCCGTTCCG gave a switch fluorescence ratio of 1.09.
TCCGTTCCGT showed a switch fluorescence ratio of 1.13.
For TCCTAAGTGA, the switch fluorescence ratio was 1.24.
TCCTAATAAT showed a switch fluorescence ratio of 1.01.
TCCTAATAGG gave a switch fluorescence ratio of 1.
For TCCTACAAA, the switch fluorescence ratio was 1.27.
For TCCTAGGGTT, the switch fluorescence ratio was 1.03.
TCCTATTACC was tested, and the switch fluorescence ratio was 1.04.
Work on TCCTCCGGCT yielded a switch fluorescence ratio of 1.01.
TCCTCCTGTT showed a switch fluorescence ratio of 1.78.
Sequence TCCTCCTTAG has a switch fluorescence ratio of 1.89.
With TCCTCGAGCA the switch fluorescence ratio was 4.31.
TCCTGAGGGG gave a switch fluorescence ratio of 1.01.
In the case of TCCTGATCGG, the switch fluorescence ratio is reported as 0.997.
TCCTGATTTA showed a switch fluorescence ratio of 0.99.
TCCTGGTATT was tested, and the switch fluorescence ratio was 1.01.
With TCCTGTACCT the switch fluorescence ratio was 1.16.
TCCTGTAGTG showed a switch fluorescence ratio of 0.983.
In the case of TCCTGTCTGA, the switch fluorescence ratio is reported as 1.04.
TCCTGTGGTT showed a switch fluorescence ratio of 1.17.

From the supplement of paper PMC10126150
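Also: ATP exposure 15 min at 22 °C before imaging.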
